Results taken from the supplement of paper PMC11417369.
This is one part of the list.

Test system: PfAP2-HC AP2 domain (GST-tagged)
Assay: gcPBM binding intensity (ln(normalized median fluorescence intensity)); higher = stronger DNA binding
In short: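 GST-tagged P. falciparum DNA-binding domains, expressed in E. coli (about 25 μg on average), were applied for 1 h to an Agilent 4 × 180k array of primer-extended double-stranded 36-bp intergenic genomic probes plus negative controls. The binding buffer was 1× PBS with 1% milk, 0.2 mg/ml BSA, 0.5% salmon testes DNA and 0.03% Triton X-100. Bound protein was detected with Alexa488 anti-GST antibody and scanned at 488 nm. Binding intensity is the highest Masliner-normalised natural-log median intensity across replicate spots of either probe orientation.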

Sequence | gcPBM binding intensity (ln)
TAGGAAAAGAAAAGCACACACATAAATAGATATATA [CACACA_site6382] | 10.3
ATATATATATATATATATATAATTTTTTTTGTTTTT [TGCATGCA_negctrl_site453] | 10.1
GATATCAAAAAGATGGGTACATATATTTAAGTTCAT [XGTACX_site3822] | 9.66
TATATTATTAATTAGGGTACAAAAAAAAAATTTTTT [XGTACX_site7762] | 9.34
TTTTGAAAAAGTTGCACACAAAATTTAAAAAAAAAA [CACACA_site1632] | 9.75
TTAAATAGAAATAAGACTAACAATGAACCAAAAAAA [CACACA_negctrl_site991] | 9.88
TTTTCATTTGAAAGTCGTACAAGTTCGAAAAAAGGA [XGTACX_site6840] | 9.7
CTTAAAAAAACCTTAACACACATAAACTATAATTTA [CACACA_site3055] | 9.62
ATATTATATATATGTGCACACAAAAGATATATATAT [CACACA_site2125] | 10.3
ATAAGCAATAAAAAAACATGCATATTATTATCAACA [TGCATGCA_site1027] | 9.82
TTTAAAAATAAAAGTACACACATAAACATATTGCAC [CACACA_site6784] | 10
AAGTTAACACAACAGGTGCAAGAAAAGTTTTTAATG | 9.7
ATCAAGCACGGACACACACACACACCCAGACCCCCA [CACACA_site4360] | 10.6
TCTTTAATATATAGTGCATGTAAATTTTACAATAAT [TGCATGCA_site242] | 9.49
TATGGTATATACAACACACACACATATGTATATATA [CACACA_site927] | 10.9
AGTTAATGTTTATGTACACACGGTGGGTATATATTT [CACACA_site5785] | 9.85
GATCTACATGAAAGGACACACAAATATATATATATA [CACACA_site84] | 10.1
ATAAATATGGAGCACACACACATAAACATACCTATA [CACACA_site6336] | 10.8
TTAAAAATGATTGAATGTACAGATTAATATAATTTT [XGTACX_site7394] | 9.51
TAATTTTTGAAACACACACACATATATATATATATA [CACACA_site94] | 10.5
ATAATAAGGTTAAGCACACATATTACAGATATAACT [CACACA_site5791] | 9.88
AAATATTATGTGGCAAGTACATAAAGAAAATGCTTA [XGTACX_site3356] | 9.65
AATAATAATAATAATAGTACATATTATGAATATGAT [XGTACX_site5730] | 9.82
AAAAAAAAATATATATAAAATTAAAAAATGTAATAT [GTGCAC_negctrl_site581] | 9.61
TTATATCCCGTCCTTTATTAAAAAAATTTTTTTTCT [TGCATGCA_negctrl_site582] | 9.58
